Measurements taken from the supplement of paper PMC3334620.
In all, about 33,000 sequences were measured (“E-score (-0.5 to 0.5)”: median about -0.017, highest 2% from about 0.3 on). Some of the results follow.

The sequences below were run against T1, Sut1 (UniProt P53032) (assay: PBM E-score (8-mer binding enrichment) (E-score (-0.5 to 0.5)); higher = stronger / more preferred TF binding; most listed sequences are background and not binding sites). Details: protein concentration: 200 nM; construct: GST-full length.
T1 sequence: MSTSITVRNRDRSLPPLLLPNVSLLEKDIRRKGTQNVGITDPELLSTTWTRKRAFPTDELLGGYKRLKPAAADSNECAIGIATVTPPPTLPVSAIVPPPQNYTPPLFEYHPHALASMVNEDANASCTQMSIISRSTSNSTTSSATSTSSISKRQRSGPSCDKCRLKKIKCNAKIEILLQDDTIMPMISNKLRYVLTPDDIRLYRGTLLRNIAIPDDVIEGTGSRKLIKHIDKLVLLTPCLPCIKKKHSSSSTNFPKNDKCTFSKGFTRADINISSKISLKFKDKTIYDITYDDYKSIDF
Procedure, shortened: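 Full-length yeast transcription factors or their DNA-binding domains, GST-tagged and expressed with PURExpress, were applied at about 100-200 nM to universal all-10-mer Agilent arrays. These arrays had been made double-stranded by primer extension on fresh or once-stripped slides. Detection used fluorescent anti-GST, normalisation used masliner, and E-scores for ungapped eight-base words pooled with reverse complements came from the Universal PBM Analysis Suite.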
GCTTCGTA was tested, and the “PBM E-score” value was 0.0454. In the case of CATCAGGC, the “PBM E-score” value is reported as -0.0777. With ACATCGCA the “PBM E-score” value was -0.067. In the case of CAAGTATC, the “PBM E-score” value is reported as 0.0559. In the case of ACGGGCGC, the “PBM E-score” value is reported as -0.205. With AAGCGCTA the “PBM E-score” value was 0.176. For AATTAACT, the “PBM E-score” value was 0.237. With AAGCGTAT the “PBM E-score” value was -0.119. For CTCTACGC, the “PBM E-score” value was -0.155. CGCGGGCA was tested, and the “PBM E-score” value was 0.0742. CCTCGCCG was tested, and the “PBM E-score” value was -0.338. CAGCCTAC was tested, and the “PBM E-score” value was -0.0545. For CAAACTGC, the “PBM E-score” value was 0.0384. GCCCCTAA was tested, and the “PBM E-score” value was -0.251. For AGCACGTA, the “PBM E-score” value was 0.0175. For CAGTGTGG, the “PBM E-score” value was -0.124. In the case of GATACGCC, the “PBM E-score” value is reported as -0.129. With ACGCGTAC the “PBM E-score” value was -0.00813. AAAGTCAG was tested, and the “PBM E-score” value was 0.00828. In the case of CTTACGAC, the “PBM E-score” value is reported as -0.189. With CGCATTAG the “PBM E-score” value was -0.174. With CGTGCGAG the “PBM E-score” value was -0.0295. In the case of AAAACAAG, the “PBM E-score” value is reported as 0.0776. For CAGATTAA, the “PBM E-score” value was 0.202. For AACCGTAA, the “PBM E-score” value was 0.035. With GTCTGAAA the “PBM E-score” value was 0.0321. For ACCCGCCA, the “PBM E-score” value was -0.175. AGACCCAG was tested, and the “PBM E-score” value was -0.287. GTCTACAA was tested, and the “PBM E-score” value was -0.00497. With AGCTGCCG the “PBM E-score” value was 0.0639. With ACCCCAGA the “PBM E-score” value was -0.235. With GAATAATC the “PBM E-score” value was 0.118. With CTCGGACC the “PBM E-score” value was 0.368. In the case of AAGGACGG, the “PBM E-score” value is reported as -0.195. With ACAAGCAA the “PBM E-score” value was 0.0908. In the case of CGATGTAC, the “PBM E-score” value is reported as -0.0815. With CCGTTCCG the “PBM E-score” value was 0.134. CTAAGCGC was tested, and the “PBM E-score” value was -0.136. In the case of CAGCCTGC, the “PBM E-score” value is reported as -0.224. In the case of CCTTGCTC, the “PBM E-score” value is reported as -0.173. CAAAGCGA was tested, and the “PBM E-score” value was 0.0222. For CATGATAG, the “PBM E-score” value was 0.0908. With CGAACTTC the “PBM E-score” value was 0.0646. In the case of ATGCACAC, the “PBM E-score” value is reported as -0.0762. For AATTCGTG, the “PBM E-score” value was -0.0661. For ATGGTACG, the “PBM E-score” value was 0.0767. With GGTCTCAC the “PBM E-score” value was -0.108. In the case of AAGGGTGT, the “PBM E-score” value is reported as -0.0326. In the case of AGATTAAT, the “PBM E-score” value is reported as 0.222. With CCCACGGA the “PBM E-score” value was 0.152. CTTTGTTC was tested, and the “PBM E-score” value was 0.0286. For AATACGGA, the “PBM E-score” value was 0.286. For GGCGCCTA, the “PBM E-score” value was -0.227. TAGAGCTA was tested, and the “PBM E-score” value was -0.227. With AACGAGAG the “PBM E-score” value was 0.0646. ACCGGCCT was tested, and the “PBM E-score” value was -0.185. With AACCTTGA the “PBM E-score” value was 0.116. In the case of CGCCGGAA, the “PBM E-score” value is reported as 0.132. GACACCAA was tested, and the “PBM E-score” value was -0.0326. In the case of CTGTCCCC, the “PBM E-score” value is reported as -0.214. With CGCCCTAA the “PBM E-score” value was -0.166. In the case of ATAATCTA, the “PBM E-score” value is reported as 0.262. For GGCGTCCC, the “PBM E-score” value was -0.27. With ATAAGACC the “PBM E-score” value was 0.151. CAGCCAGC was tested, and the “PBM E-score” value was -0.131. GTCTTAAA was tested, and the “PBM E-score” value was 0.00721. In the case of CACGAAAG, the “PBM E-score” value is reported as -0.0298. For AGTGAACC, the “PBM E-score” value was -0.0366. ACCGCGCC was tested, and the “PBM E-score” value was -0.133. In the case of CATACGTC, the “PBM E-score” value is reported as -0.0138. CTTTAATC was tested, and the “PBM E-score” value was 0.183. In the case of CAAGGGAA, the “PBM E-score” value is reported as -0.215. With GACTGTCA the “PBM E-score” value was 0.00156. For TATAGCAA, the “PBM E-score” value was 0.186. For CAGAAGTC, the “PBM E-score” value was -0.188. AAATCTAT was tested, and the “PBM E-score” value was 0.219. With GCCCATAC the “PBM E-score” value was -0.182. For TGGCGGAA, the “PBM E-score” value was -0.0601. In the case of TCCCCCAA, the “PBM E-score” value is reported as -0.237. In the case of CTGTGATC, the “PBM E-score” value is reported as 0.101. GGATTTAA was tested, and the “PBM E-score” value was 0.224. For ACCGGAAA, the “PBM E-score” value was 0.268. For CAGAGCAA, the “PBM E-score” value was 0.0158. With CCGGAACC the “PBM E-score” value was 0.185. For CTGGTGCA, the “PBM E-score” value was -0.255. With CATGACTC the “PBM E-score” value was 0.0183. For ATCCCCGC, the “PBM E-score” value was -0.0529. For AAGCCAGG, the “PBM E-score” value was -0.253. For GATTATAC, the “PBM E-score” value was 0.0252. ATAGGTGA was tested, and the “PBM E-score” value was 0.0709. TGCTGCAA was tested, and the “PBM E-score” value was 0.0933. CCGACCAG was tested, and the “PBM E-score” value was -0.0779. With CTACTCGC the “PBM E-score” value was -0.13. CTAGTGTA was tested, and the “PBM E-score” value was -0.072. For AAAAACCC, the “PBM E-score” value was 0.181. TCGGCGCA was tested, and the “PBM E-score” value was -0.085. With GCAGCTGC the “PBM E-score” value was -0.14. In the case of GATGCTCC, the “PBM E-score” value is reported as 0.17. For CCTAGAGA, the “PBM E-score” value was -0.134. CCTACGAG was tested, and the “PBM E-score” value was -0.172. With AGATGCTG the “PBM E-score” value was -0.143. In the case of GAAAGGTA, the “PBM E-score” value is reported as 0.193. In the case of GCGTGCCC, the “PBM E-score” value is reported as -0.326. With CTATCAAA the “PBM E-score” value was 0.168. TCAAGCCA was tested, and the “PBM E-score” value was -0.0353. For CCCCGAGC, the “PBM E-score” value was 0.163. For CTCCGGGC, the “PBM E-score” value was 0.391. In the case of TCTTGTAA, the “PBM E-score” value is reported as 0.163. In the case of CACCTGGA, the “PBM E-score” value is reported as -0.119. In the case of CTCGGTTA, the “PBM E-score” value is reported as 0.0486. With ACGGAAGG the “PBM E-score” value was -0.0622. AACATAAC was tested, and the “PBM E-score” value was 0.163. For CCGATTAG, the “PBM E-score” value was 0.103. In the case of CCATTTAG, the “PBM E-score” value is reported as -0.15. With ATCCTGGG the “PBM E-score” value was -0.275. In the case of CCACCCTA, the “PBM E-score” value is reported as -0.0533. In the case of GGGCGCCA, the “PBM E-score” value is reported as -0.158. In the case of GACTCGGA, the “PBM E-score” value is reported as 0.33. CCATTTCG was tested, and the “PBM E-score” value was -0.0685. With CGAAAGTA the “PBM E-score” value was -0.0665. In the case of CTTACTTC, the “PBM E-score” value is reported as 0.167. In the case of GGTCTGAC, the “PBM E-score” value is reported as -0.161. In the case of CTGTCCAA, the “PBM E-score” value is reported as -0.0138. In the case of GGGCATAC, the “PBM E-score” value is reported as -0.187. CGTTTTTA was tested, and the “PBM E-score” value was 0.169. With CTAAAGGC the “PBM E-score” value was -0.139. For CCTAGTGA, the “PBM E-score” value was -0.11. In the case of ATTCAGAC, the “PBM E-score” value is reported as -0.0431. In the case of CTCTGTCA, the “PBM E-score” value is reported as -0.157. For ACTGGTAT, the “PBM E-score” value was -0.143. For ACTCGACA, the “PBM E-score” value was 0.0249. In the case of CTTTATAA, the “PBM E-score” value is reported as 0.135. With ACAATTGC the “PBM E-score” value was 0.0567. In the case of CGGCGTAG, the “PBM E-score” value is reported as -0.176. For ACATTTAC, the “PBM E-score” value was 0.168. In the case of CTACGATC, the “PBM E-score” value is reported as -0.00632. For ACCGGGTC, the “PBM E-score” value was -0.165. With CGCTACGC the “PBM E-score” value was -0.122. For ACGCTCAT, the “PBM E-score” value was -0.0514. With ATTTCGGG the “PBM E-score” value was 0.0466. In the case of AAAGGGAC, the “PBM E-score” value is reported as -0.202. With GGTCTGCA the “PBM E-score” value was -0.0604. With GGTCCCCA the “PBM E-score” value was -0.133. In the case of GTTGAACA, the “PBM E-score” value is reported as -0.0558. TAAGAAAA was tested, and the “PBM E-score” value was 0.262. CGTTCCAA was tested, and the “PBM E-score” value was 0.106. For CCACAAAC, the “PBM E-score” value was 0.0626. In the case of GCCCGTAC, the “PBM E-score” value is reported as -0.215. In the case of AGCCCTCA, the “PBM E-score” value is reported as -0.247. In the case of AAACTAGG, the “PBM E-score” value is reported as 0.0814. CTCAAAAA was tested, and the “PBM E-score” value was 0.054. For TTCGGCAA, the “PBM E-score” value was 0.0822. CAGATGCG was tested, and the “PBM E-score” value was -0.162. With GTTTCATA the “PBM E-score” value was 0.0407. For AACTTCGG, the “PBM E-score” value was 0.294. In the case of CGCAACGA, the “PBM E-score” value is reported as 0.0591. In the case of ATTTCAGA, the “PBM E-score” value is reported as 0.00515. With GCTTCCAA the “PBM E-score” value was 0.119. With AAATTCTA the “PBM E-score” value was 0.131. With CCGGTATA the “PBM E-score” value was 0.0186. ACGGATCA was tested, and the “PBM E-score” value was 0.113. AGTCAATA was tested, and the “PBM E-score” value was 0.169. AGCGGCGA was tested, and the “PBM E-score” value was 0.0499. With GCTTTGCC the “PBM E-score” value was -0.101. TTAACTAA was tested, and the “PBM E-score” value was 0.238. With TCCCCACA the “PBM E-score” value was -0.262. In the case of GCAAAGTA, the “PBM E-score” value is reported as 0.0736. In the case of AACCTGGG, the “PBM E-score” value is reported as -0.263. CCCGCACA was tested, and the “PBM E-score” value was -0.226. AAGGTTGT was tested, and the “PBM E-score” value was 0.0599. GGGTTCTA was tested, and the “PBM E-score” value was -0.0976. AAAGCTTG was tested, and the “PBM E-score” value was -0.0326.
